Assay results taken from paper PMC7819943, “Rice protein-binding microarrays: a tool to detect cis-acting elements near promoter regions in rice”.
Some of the results follow.

Target: T1, OsWOX13 (Oryza sativa, UniProt Q5QMM3 1-267)
T1 sequence: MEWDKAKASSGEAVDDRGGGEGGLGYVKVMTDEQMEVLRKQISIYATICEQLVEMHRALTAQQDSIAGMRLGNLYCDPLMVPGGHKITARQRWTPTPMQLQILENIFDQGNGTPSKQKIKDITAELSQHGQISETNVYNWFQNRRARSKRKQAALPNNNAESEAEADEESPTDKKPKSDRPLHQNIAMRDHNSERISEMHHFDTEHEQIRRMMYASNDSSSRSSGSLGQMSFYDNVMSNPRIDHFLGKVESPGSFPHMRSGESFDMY
Experiment: protein-binding microarray (RPBM); PBS, 2% BSA, 51.3 ng/ul salmon testes DNA, 50 uM zinc acetate, 200 nM TF, 25 C, 1 h; high values mean tight binding
Conditions: protein: recombinant; tags: N-terminal polyhistidine and DsRed monomer fusion (pET32a); label: CyDye5-dUTP incorporated in the synthesized complementary strand; 3' TTTTT single-stranded linker to array surface; dsDNA, one strand shown
In short: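 Polyhistidine-tagged DsRed fusions of transcription factors, joined at the N-terminus, were expressed in E. coli BL21-CodonPlus and isolated on Ni–NTA. They were incubated at 200 nM for 1 h at 25 °C on a custom Agilent array, double-stranded and BSA-blocked, in PBS with 2% BSA, salmon testes DNA and 50 µM zinc acetate. The binding signal is per-feature fluorescence intensity (arbitrary units) read on an Axon 4000B scanner after washing.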

Sequence	binding signal
TTTGATAGTTAGTTCTGTTACCAATCAAATGTTTATGTTGCGGAGTCACCTAGTGCAG	15900 fluorescence intensity (a.u.)
CAAAATAGACTTATTACAATCATTCAAATATGGCCCGAAGCGGAGTCACCTAGTGCAG	15100 fluorescence intensity (a.u.)
AGTCATTAATGTATAATTAATTTAGTTTAATTATTATTGACGGAGTCACCTAGTGCAG	47200 fluorescence intensity (a.u.)
ATTCTAAATGACTAATTTATTCCTAAAGTTATATAACTCACGGAGTCACCTAGTGCAG	6400 fluorescence intensity (a.u.)
CAGATAGCATAAAATTGAAGGTGACCATCATCAACTGTATCGGAGTCACCTAGTGCAG	3380 fluorescence intensity (a.u.)
ACTGATTGATTTGGAAGGAGAGAAATACTATGTTGGGTTTCGGAGTCACCTAGTGCAG	63700 fluorescence intensity (a.u.)
CAAATTAGCCCACAATCATAAATTACCAAATTGCCCTTGACGGAGTCACCTAGTGCAG	14900 fluorescence intensity (a.u.)
ATATATCTAACCATAATTAATTAACAATTAACCTGTGTTACGGAGTCACCTAGTGCAG	21800 fluorescence intensity (a.u.)
TCCTAATCTTCTTAATTTTGCACTCTCTCCAAATTTTGATCGGAGTCACCTAGTGCAG	7980 fluorescence intensity (a.u.)
CTAGGGTAAAATCACAATTGAGATTGAAAGCTGGGGTATACGGAGTCACCTAGTGCAG	7170 fluorescence intensity (a.u.)
ATGATAGACAGATAATTCTACAAACAAATTCGGATTTCTTCGGAGTCACCTAGTGCAG	35000 fluorescence intensity (a.u.)
AGTTAGCTGTAATTACATCATGATTGTACTGTATTTACGTCGGAGTCACCTAGTGCAG	29300 fluorescence intensity (a.u.)
AGTGATAGATTTACACAGCTTGGTTATTATCTACTTCCTTCGGAGTCACCTAGTGCAG	33600 fluorescence intensity (a.u.)
ATGATTTATTTTGCAACATTTTCTTTTATATCGCTTAGGACGGAGTCACCTAGTGCAG	11900 fluorescence intensity (a.u.)
ATGTCGTCATTATGTGATTAACACAAGAACGCTTGTTCGTCGGAGTCACCTAGTGCAG	5300 fluorescence intensity (a.u.)
TGTGATTGTGATCCATTGATTAGGTCAAGCATCGCCTTGACGGAGTCACCTAGTGCAG	43200 fluorescence intensity (a.u.)
GACTGATGGACACACCACAAGCGCCGGGTCAACCCGCGGTCGGAGTCACCTAGTGCAG	13500 fluorescence intensity (a.u.)
AATTTAATCTTTAATTAATTTATTTCTCGCCTCTCTTAACCGGAGTCACCTAGTGCAG	4610 fluorescence intensity (a.u.)
GTCAAACCTTTAAATTGACCTCACATGCATGCGTATAGGTCGGAGTCACCTAGTGCAG	3330 fluorescence intensity (a.u.)
TTGGTTCAGATTGATTTGCTGCAAGTGCAAACCTGTTCTTCGGAGTCACCTAGTGCAG	36100 fluorescence intensity (a.u.)
CTGCTTTAATTAGTTGAGATGAACGTAGAGAATGGATCCTCGGAGTCACCTAGTGCAG	9150 fluorescence intensity (a.u.)

Sequence	binding signal
AACACTGGTGATTTGATTAGGATTTGCATGCATCCCTGTACGGAGTCACCTAGTGCAG	28900 fluorescence intensity (a.u.)
CACTAGTGATTAGCGCCACACGCACGAACTCCATCCACACCGGAGTCACCTAGTGCAG	18000 fluorescence intensity (a.u.)
ACTGATTTGTTTGAGTCAAACCTATTGTTCATATATGCCACGGAGTCACCTAGTGCAG	40500 fluorescence intensity (a.u.)
CATGCTAATTACATCTTAGCATATACACATTCTCCCATTGCGGAGTCACCTAGTGCAG	11700 fluorescence intensity (a.u.)
ATTAGTTGCTGATTAACAGCCAGTGCCTGCTAAATATAGCCGGAGTCACCTAGTGCAG	4220 fluorescence intensity (a.u.)
CGCACAAAATTATGTGATTGGGGTGCGACATAGGGAATCACGGAGTCACCTAGTGCAG	16600 fluorescence intensity (a.u.)
CCAAAATTCATGCACAATTGACAATTCCTCACGTTTCGAACGGAGTCACCTAGTGCAG	7460 fluorescence intensity (a.u.)
AGTGACCCCAGATTGGCATTCATCGACACGAACGAACAGTCGGAGTCACCTAGTGCAG	8910 fluorescence intensity (a.u.)
AAGCATGTGATTAGCAAAAGACGCCGTACTCTCTCTCTCACGGAGTCACCTAGTGCAG	16700 fluorescence intensity (a.u.)
GTTCTGATTTGTTTCCTTAACAATTGCCGATCGATTTACACGGAGTCACCTAGTGCAG	13300 fluorescence intensity (a.u.)
TTTTAAATTTAAAATATAGATTAATATAATTTTCCAAACTCGGAGTCACCTAGTGCAG	27000 fluorescence intensity (a.u.)
GCTGAATTACGACCGCTAGATTGGGTCCAACAGGCCCATCCGGAGTCACCTAGTGCAG	8130 fluorescence intensity (a.u.)
ATAATTACTAGCGGGCACTAATTATATACAAGGTATTGATCGGAGTCACCTAGTGCAG	6250 fluorescence intensity (a.u.)
CATCATCATCATCAATGCAATCACTTTCGGCGGCTACTCCCGGAGTCACCTAGTGCAG	6050 fluorescence intensity (a.u.)
CCTTGATGTCTTGATAGCCCATTGGTATCCATTCTTCTGTCGGAGTCACCTAGTGCAG	3670 fluorescence intensity (a.u.)
AACTTTGACTGCTGCTTAGCCCAAGTCCAAGTCTTTCTTCCGGAGTCACCTAGTGCAG	3640 fluorescence intensity (a.u.)
AGATAAATGTATATTCAAATTTATAGCTAACATTGGTTATCGGAGTCACCTAGTGCAG	3970 fluorescence intensity (a.u.)
TCAATAATTGACGATATGCTAACATGCTATATCAGTTATTCGGAGTCACCTAGTGCAG	37400 fluorescence intensity (a.u.)
ATTGAATTGACATGTAACCTTATCCTATCAAAACTTACGGCGGAGTCACCTAGTGCAG	32500 fluorescence intensity (a.u.)
AACAAATCAAATCCTAATCATCCATCCCATCCAAATCTACCGGAGTCACCTAGTGCAG	6490 fluorescence intensity (a.u.)
GGACGTGATAGATAGTGCGTTTGGCTTGTCTAGCTGTTTGCGGAGTCACCTAGTGCAG	27100 fluorescence intensity (a.u.)
